Data reported in paper PMC6919601, “Identification of Plasmodium dipeptidyl aminopeptidase allosteric inhibitors by high throughput screening” (PLoS ONE, 2019).
“And” between values parts separate entries of the source, which are not always exact repeats. Identical values can stand only once. In all, about 110,000 compounds went through this assay and about 230 (0.21%) showed an effect of 50% or more. The list shows a part of the results.

What follows are compounds tested against DPAP1 (Plasmodium falciparum, UniProt Q8IIJ9) (assay: primary screen, percent inhibition; read by cleavage of a fluorogenic dipeptide substrate; higher = more effect of the substance).
Design: species or system P. falciparum D10 trophozoite lysates; single well
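Note: 30 min substrate incubation versus DMSO and 10 µM JCP410 controls.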

Sequence of DPAP1 (Q8IIJ9 whole entry, looked up): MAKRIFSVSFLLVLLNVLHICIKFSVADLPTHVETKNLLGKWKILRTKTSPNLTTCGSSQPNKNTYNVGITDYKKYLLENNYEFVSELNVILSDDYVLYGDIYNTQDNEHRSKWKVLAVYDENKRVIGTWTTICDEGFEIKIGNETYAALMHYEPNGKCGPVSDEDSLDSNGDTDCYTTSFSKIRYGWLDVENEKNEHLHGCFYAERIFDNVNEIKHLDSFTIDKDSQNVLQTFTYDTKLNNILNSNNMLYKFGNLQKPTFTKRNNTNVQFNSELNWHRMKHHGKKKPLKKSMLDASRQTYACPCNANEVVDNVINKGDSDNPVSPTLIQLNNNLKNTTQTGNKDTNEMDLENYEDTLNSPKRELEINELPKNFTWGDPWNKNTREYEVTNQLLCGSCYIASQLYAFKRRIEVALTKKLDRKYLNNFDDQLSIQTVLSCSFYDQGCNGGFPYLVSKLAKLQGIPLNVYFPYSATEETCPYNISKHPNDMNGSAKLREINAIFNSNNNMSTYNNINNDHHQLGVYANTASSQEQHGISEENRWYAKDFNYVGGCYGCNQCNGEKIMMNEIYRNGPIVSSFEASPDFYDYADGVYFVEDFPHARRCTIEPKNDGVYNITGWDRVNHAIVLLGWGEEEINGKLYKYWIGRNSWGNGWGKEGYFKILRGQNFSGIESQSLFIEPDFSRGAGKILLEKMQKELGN

Row | Structure (SMILES) | % Inhibition @ 10 uM
1 | O=C1c2cccnc2C(=O)N1c1ccc(F)cc1 | -2.8%
2 | COc1ccc2c(c1)C1(Nc3ccccc3C(=O)N1Cc1ccccc1)C(=O)N2 (centres unmarked) | 3.5%
3 | CC(C)(C)c1nc(O)c2c3c(sc2n1)CCCC3 | 0.51%
4 | C/N=C1\SC(CC(=O)Nc2ccc(C(C)=O)cc2)C(=O)N1C (centres unmarked) | -5.51%
5 | CN1CCc2nc(SCC(=O)Nc3ccc(Cl)cc3)c(C#N)c(-c3ccsc3)c2C1 | -6.51%
6 | O=C(NC1CCCCC1)C1CCN(C(=O)c2ccccc2)CC1 | -7.56%
7 | CC1=NN2C(=N)/C(=C\c3cccn3-c3cc(C)cc(C)c3)C(=O)N=C2S1 | 1.9%
8 | Cc1cccc(C(=O)NCCc2ccccc2)c1 | -1.7%
9 | CC(=O)C1=C(O)C(=O)N(CCCO)C1c1ccccc1F (centres unmarked) | -2.99%
10 | CC1CC(C)CN(S(=O)(=O)c2ccc(F)c(C(=O)NCc3ccccc3Cl)c2)C1 (centres unmarked) | 1.42%
11 | COc1cccc(Nc2nc(N)c3ccccc3n2)c1 | -7.96%
12 | COc1ccc(C2=N/C(=C\c3ccc(OC)c(OC)c3OC)C(=O)O2)cc1OC | -2.27%
13 | CC1CN(C2CC3CCC2C3)CC(C)O1 (centres unmarked) | 2.22%
14 | CC1CC(C)CN(C/C=C/c2ccc(N(C)C)cc2)C1 (centres unmarked) | 2.1%
15 | CCCCN(C)C1CCN(CC)CC1 | -3.6%
16 | CCC1CCC(N2CCCCC2CO)CC1 (centres unmarked) | -3.5%
17 | COc1ccc(OCc2cccc(C(=O)N3N=C(C)CC3(O)C(F)(F)F)c2)cc1 (centres unmarked) | -4.72%
18 | Cc1ccc(C2=NS(=O)(=O)N(C)C(C(=O)NC(C)(C)CO)=C2)cc1 | 2.32%
19 | CCOC(=O)N1CCC(NC(=O)C(C)n2nc(C)c3sc4ccccc4c3c2=O)CC1 (centres unmarked) | -1.49%
20 | Cc1cc(C)n(Cc2ccc(C(=O)Nc3c(F)cc(F)cc3Br)o2)n1 | 2.92%
21 | COc1ccc(/C=C/c2cc(C(F)(F)F)nc(O)n2)cc1 | -2.54% and 2.41%
22 | Cc1cc(-c2ccccc2)n2ncc(-c3ccccc3)c2n1 | -7.49%

Row | Structure (SMILES) | % Inhibition @ 10 uM
23 | CNS(=O)(=O)c1cn(CC(=O)NCc2cccnc2)cc1S(=O)(=O)NC | -1.95%
24 | COCCCNc1nc2c(-c3ccc(C)cc3)nnn2c2ccccc12 | 2.04%
25 | CC(C)(C)c1ccc(C(CC(=O)O)NC(=O)C23CC4CC(CC(C4)C2)C3)cc1 (centres unmarked) | 0.9%
26 | O=[N+]([O-])c1ccc2nccc(S)c2c1 | 26%
27 | CS/C(NC1CCCCC1)=C(\C#N)S(=O)(=O)c1ccccc1 | -2.83%
28 | CCN(CC)C(=O)C1CCN(S(=O)(=O)c2c(C)cc(C)cc2C)CC1 | -0.231%
29 | CCOc1cccc2cc(S(=O)(=O)c3ccc(F)c(C)c3)c(=O)oc12 | 0.44%
30 | O=C(CN1CCN(Cc2ccc(F)cc2Cl)C1=O)NCCc1ccccc1 | -0.984%
31 | Oc1cc(Nc2ccc(Br)cc2)nc(O)n1 | -2.48%
32 | Cc1ccc2nc(N3CN(CCN4CCOCC4)CN(c4nc5ccc(C)cc5s4)C3)sc2c1 | 26.6%
33 | CC(C)CCNC(=O)c1cnn(-c2ccc(F)cc2)c1C1CCN(C(=O)OC(C)(C)C)CC1 | 3.61%
34 | Cc1cc(N2CCN(c3ccccc3)CC2)nc2ccccc12 | 0.345%
35 | Cc1csc(NC(=O)CCc2c(C)nc3c4c(C)cc(C)nc4nn3c2C)n1 | 4.14%
36 | COc1ccc(CN2CCN(c3ccccc3C)CC2)c(C)c1C | -0.197%
37 | CCCNCc1nc(-c2ccc(OC)c(OC)c2)no1 | -0.0593%
38 | CC(C)Cn1cc(NC(=O)NCC2CCCO2)c2ccccc2c1=O (centres unmarked) | -4.21%
39 | Oc1nc2ccc(Br)cc2c(F)c1-c1cccs1 | -2.05%
40 | CCOc1ccc(C(=O)NCc2ccco2)cc1 | -1.12%
41 | CC1CCCCN1S(=O)(=O)c1cc(Cl)ccc1Cl (centres unmarked) | 5.06%
42 | N=C1/C(=C/c2cc(Cl)c(O)c(Cl)c2)C(=O)N=C2SC=C(c3ccccc3)N12 | 2.95%
43 | CC1(C(=O)O)CCC(C(=O)Nc2cccc(C(=O)O)c2)C1(C)C (centres unmarked) | 0.35%
44 | CCCN1C(=O)SC(CC(=O)Nc2ccccc2)C1=O (centres unmarked) | -1.79%

Row | Structure (SMILES) | % Inhibition @ 10 uM
45 | Nc1nonc1-c1nc2ccccc2n1CC(=O)Nc1ccc2c(c1)CCC2 | 0.751%
46 | CC(C)Oc1cccc(-c2cc(C(=O)N3CCN(C(=O)c4ccco4)CC3)c3ccccc3n2)c1 | 21.1%
47 | O=C(CNS(=O)(=O)c1cccc(Cl)c1)Nc1ccc(-c2nc3ccccc3s2)cc1 | 4.11%
48 | CNC(=O)c1ccc2c(c1SCCO)C(=O)c1ccccc1C2=O | 3.81%
49 | O=S(=O)(c1cccc(-c2cn3ccccc3n2)c1)N1CCOCC1 | 0.245%
50 | O[C@]12CCCC[C@@H]1[C@@H](c1ccccc1C(F)(F)F)NCC2 | 3.31%
51 | O=C(Nc1cccc2ccccc12)c1ccc(Cl)s1 | -2.53%
52 | COC(=O)c1sccc1NC(=O)C1c2ccccc2C(=O)N(CC(C)C)C1c1cccs1 (centres unmarked) | 2.78%
53 | COc1nc(-c2ccc(Cl)cc2)ccc1-c1noc(-c2ccncc2)n1 | 1.89%
54 | Cc1ccc(C2=NC3(CCN(C(=O)c4ccc(F)cc4)CC3)NC2=O)cc1C | 2.75%
55 | CN(C)c1ccc(NC2=C([N+](=O)[O-])CS(=O)(=O)C2)cc1 | 4.12%
56 | CC(=O)c1ccc(NC(=O)C(C)Oc2ccc(C)cc2)cc1 (centres unmarked) | -2.76%
57 | COc1ccc2cc(C(=O)N3CCCCCC3)sc(=O)c2c1OC | -3.64%
58 | CCCNC(=O)C1CC(=O)N(c2ccc(Br)cc2)C1 (centres unmarked) | -0.0648%
59 | O=C(Nc1n[nH]cc1-c1cccc(C(F)(F)F)c1)c1ccc(Cl)cc1 | 0.66%
60 | COc1cc(C2CC(=O)NC3=C2C(=O)CC(c2cccs2)C3)cc(Br)c1O (centres unmarked) | 0.205%
61 | COc1cc(CN2CCN(c3ccc(F)cc3)CC2)cc(OC)c1 | 3.48%
62 | COCCn1c(CN2CC(C)OC(C)C2)nc2c1c(=O)n(C)c(=O)n2C (centres unmarked) | -1.43%
63 | CC1CCN(S(=O)(=O)N2CCCC(C(=O)N3CCOCC3)C2)CC1 (centres unmarked) | -5.18%
64 | Cc1ccc2oc(-c3ccccc3)c/c(=N\CC3CCCO3)c2c1 (centres unmarked) | 2.24%
65 | CCN(CC)CCCCCOc1ccccc1C | -4.21%
